Consider 26 compounds from publication PMC4336329 (PLoS ONE, 2015).

The whole screen tested about 310,000 compounds, of which about 14,000 (4.5%) showed an effect of 50% or more. The effect is printed as a negative number. The list shows a part of the results.
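Further: peak tail current of the secondary pulse compared with the same well before compound.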

Sequence of human ether-à-go-go-related gene (hERG) potassium channel (Q12809 whole entry, looked up): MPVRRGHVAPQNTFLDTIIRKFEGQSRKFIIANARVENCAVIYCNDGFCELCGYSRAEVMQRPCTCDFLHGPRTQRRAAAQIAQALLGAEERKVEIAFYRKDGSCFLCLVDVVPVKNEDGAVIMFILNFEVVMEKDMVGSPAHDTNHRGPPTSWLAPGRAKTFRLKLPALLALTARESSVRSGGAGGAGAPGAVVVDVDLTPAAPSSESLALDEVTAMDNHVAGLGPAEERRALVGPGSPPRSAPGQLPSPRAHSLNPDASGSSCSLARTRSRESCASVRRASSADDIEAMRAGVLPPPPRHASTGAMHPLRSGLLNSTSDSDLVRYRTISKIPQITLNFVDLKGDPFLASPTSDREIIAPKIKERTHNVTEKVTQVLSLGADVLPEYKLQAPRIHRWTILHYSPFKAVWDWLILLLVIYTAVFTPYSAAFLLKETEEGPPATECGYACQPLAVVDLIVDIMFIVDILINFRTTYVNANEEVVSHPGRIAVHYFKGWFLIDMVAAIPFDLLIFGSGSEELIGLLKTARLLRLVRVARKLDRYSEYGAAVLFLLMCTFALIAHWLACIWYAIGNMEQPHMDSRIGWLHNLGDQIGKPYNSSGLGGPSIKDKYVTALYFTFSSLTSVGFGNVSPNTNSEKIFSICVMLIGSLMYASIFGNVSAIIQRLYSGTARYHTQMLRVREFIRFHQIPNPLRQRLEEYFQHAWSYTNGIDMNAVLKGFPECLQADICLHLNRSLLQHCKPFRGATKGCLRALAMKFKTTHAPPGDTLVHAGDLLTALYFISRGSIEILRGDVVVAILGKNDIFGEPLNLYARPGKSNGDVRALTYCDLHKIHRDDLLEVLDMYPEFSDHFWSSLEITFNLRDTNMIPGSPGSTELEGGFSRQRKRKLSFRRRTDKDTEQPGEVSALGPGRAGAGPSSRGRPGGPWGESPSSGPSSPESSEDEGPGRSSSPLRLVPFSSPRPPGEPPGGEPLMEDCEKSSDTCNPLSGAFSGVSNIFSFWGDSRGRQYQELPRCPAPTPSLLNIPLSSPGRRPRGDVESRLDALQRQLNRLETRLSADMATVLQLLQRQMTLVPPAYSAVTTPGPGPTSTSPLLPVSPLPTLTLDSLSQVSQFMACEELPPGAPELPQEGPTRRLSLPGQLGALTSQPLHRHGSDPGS

The assay has as its target human ether-à-go-go-related gene (hERG) potassium channel (human, UniProt Q12809). In words: primary screen, population patch clamp on CHO cells stably expressing hERG.
`CC(C)(C)c1ccc(C(=O)Nc2ccccc2NC(=O)c2ccco2)cc1`: the “hERG current change (%, negative = inhibition) at 10uM” value came to 0.205%.

Consider `COCCNCCOc1ccc(C(C)(C)c2ccccc2)cc1.O=C(O)C(=O)O`, for which the “hERG current change (%, negative = inhibition) at 10uM” value is on record as -39.1%.

With `O=C(NC1CCCN(Cc2ccc(Cl)cc2)C1)c1c(F)cccc1F` (centres unmarked), the “hERG current change (%, negative = inhibition) at 10uM” value is on record as -15.7%.

Take `Cc1cccc(N2CCc3c2nc2ccc(Br)cc2c3N)c1.Cl`: the “hERG current change (%, negative = inhibition) at 10uM” value worked out at 6.56%.

With `Cc1ccc(-c2csc(=S)[nH]2)cc1`, the “hERG current change (%, negative = inhibition) at 10uM” value is 19.1%.

For `CCOC(=O)c1sc2nc(CSc3ccccc3)[nH]c(=O)c2c1C`, the “hERG current change (%, negative = inhibition) at 10uM” value is 3.8%.

Consider `CC1CCCN(C(=S)NCCc2ccccc2)C1` (centres unmarked), for which the “hERG current change (%, negative = inhibition) at 10uM” value amounted to 2.96%.

Turning to `CN(CCOc1ccccc1)C(=O)C1CCN(C(=O)c2ccc(F)cc2)CC1`, the “hERG current change (%, negative = inhibition) at 10uM” value was -19.9%.

For `O=C(c1cc(Cl)nc2ccccc12)N1CCCCC1`, the “hERG current change (%, negative = inhibition) at 10uM” value was 1.32%.

Turning to `O=Cc1c(SCCO)nc2ccccn2c1=O`, the “hERG current change (%, negative = inhibition) at 10uM” value is -8.54%.

Consider `COC(=O)NC1(C(F)(F)F)C(=O)NC(C)=C1C(=O)OC` (centres unmarked), for which the “hERG current change (%, negative = inhibition) at 10uM” value is 11.2%.

In the case of `COc1ccc(NC(C)=O)c2nc(C)c(C)nc12`, the “hERG current change (%, negative = inhibition) at 10uM” value was -0.82%.

As for `Nc1nc(CN2CCN(c3ccccn3)CC2)nc(Nc2ccc(F)cc2)n1`, the “hERG current change (%, negative = inhibition) at 10uM” value was -67.4%.

With `COc1ccc(NC(=O)C2CCCN2C(=O)NCc2ccccc2)cc1OC` (centres unmarked), the “hERG current change (%, negative = inhibition) at 10uM” value was determined as 13.6%.

With `COc1ccc(OCC(=O)N2CCN(C(=O)c3ccccc3)CC2)cc1`, the “hERG current change (%, negative = inhibition) at 10uM” value is -12.6%.

Take `Cc1cc(OCC(O)CN2CCN(CCO)CC2)ccc1C(C)C.Cl` (centres unmarked): the “hERG current change (%, negative = inhibition) at 10uM” value is given as -3.17%.

With `O=C(CSc1nc2c(c(=O)n1-c1ccc(Cl)cc1)SCC2)NCC1CCCO1` (centres unmarked), the “hERG current change (%, negative = inhibition) at 10uM” value is listed as -34.5%.

As for `CCc1ccc(C2=NNC(=Nc3cccc(S(=O)(=O)N(C)C)c3)SC2)cc1`, the “hERG current change (%, negative = inhibition) at 10uM” value is on record as -2.59%.

In the case of `COc1ccc(CCNS(=O)(=O)c2cccc3cccnc23)cc1OC`, the “hERG current change (%, negative = inhibition) at 10uM” value is reported as -2.62%.

For `N#Cc1cnn2c(-c3cccc([N+](=O)[O-])c3)ccnc12`, the “hERG current change (%, negative = inhibition) at 10uM” value is on record as -52.7%.

Consider `Cc1cc(NC(=O)c2ccc3c(c2)C(=O)N(CCC(C)C)C3=O)no1`, for which the “hERG current change (%, negative = inhibition) at 10uM” value was 0.732%.

For the compound `COc1ccccc1-c1cc(C(F)(F)F)nc(NCc2cccs2)n1`, the “hERG current change (%, negative = inhibition) at 10uM” value is listed as -11.3%.

As for `CN(Cc1cccc(Cl)c1)C(=O)C1CSC2(C)CCC(=O)N12` (centres unmarked), the “hERG current change (%, negative = inhibition) at 10uM” value is recorded as -5.77%.

Regarding `CCOc1ccc(CCNC(=O)c2cc(C)nc3ccccc23)cc1OCC`, the “hERG current change (%, negative = inhibition) at 10uM” value is -12.6%.

Take `CCCc1nnc(NC(=O)Nc2ccc(OC)cc2)s1`: the “hERG current change (%, negative = inhibition) at 10uM” value came out at 25%.

`CN1/C(=C\C(=O)CSc2nnc(N)s2)C(C)(C)c2ccccc21`: the “hERG current change (%, negative = inhibition) at 10uM” value turned out to be 0.532%.
